The values that follow come from publication PMC9911399, “Two distinct binding modes provide the RNA-binding protein RbFox with extraordinary sequence specificity”.

Substitutions are numbered along the chain they refer to; changes in the protein carry UniProt numbers. This is one part of the list.

Sequences and labels used below:
T1: RBFOX1 RRM RbFoxmut (Fox-RRM*) (Homo sapiens, UniProt Q9NWB1 109-208, R118D;E147R;N151S;E152T)
T1 sequence: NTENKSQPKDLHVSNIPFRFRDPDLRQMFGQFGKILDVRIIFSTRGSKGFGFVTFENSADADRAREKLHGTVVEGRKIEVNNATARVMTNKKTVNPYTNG

B1: CCGCCCG (DNA:RNA)
RNA: GGGAGACCGGAAUUCAGAUUGUCCCCGCCCGUUAAAUCCCGUCGUAGCCACCA
DNA 1: CAATCTGAATTCCGGTCTCCC
DNA 2: TGGTGGCTACGACGGGATT
B2: UGCUGCU (DNA:RNA)
RNA: B1 RNA with C25U, C26G, G27C, C28U, C29G, G31U
DNA 1: CAATCTGAATTCCGGTCTCCC
DNA 2: TGGTGGCTACGACGGGATT
B3: CGUAAAG (DNA:RNA)
RNA: B1 RNA with C26G, G27U, C28A, C29A, C30A
DNA 1: CAATCTGAATTCCGGTCTCCC
DNA 2: TGGTGGCTACGACGGGATT
B4: ACGUUAG (DNA:RNA)
RNA: B1 RNA with C25A, C28U, C29U, C30A
DNA 1: CAATCTGAATTCCGGTCTCCC
DNA 2: TGGTGGCTACGACGGGATT
B5: UCGUCCG (DNA:RNA)
RNA: B1 RNA with C25U, C28U
DNA 1: CAATCTGAATTCCGGTCTCCC
DNA 2: TGGTGGCTACGACGGGATT
B6: CCCUCCA (DNA:RNA)
RNA: B1 RNA with G27C, C28U, G31A
DNA 1: CAATCTGAATTCCGGTCTCCC
DNA 2: TGGTGGCTACGACGGGATT
B7: UCGGCCA (DNA:RNA)
RNA: B1 RNA with C25U, C28G, G31A
DNA 1: CAATCTGAATTCCGGTCTCCC
DNA 2: TGGTGGCTACGACGGGATT
B8: GAGGUUA (DNA:RNA)
RNA: B1 RNA with C25G, C26A, C28G, C29U, C30U, G31A
DNA 1: CAATCTGAATTCCGGTCTCCC
DNA 2: TGGTGGCTACGACGGGATT
B9: ACCAGAC (DNA:RNA)
RNA: B1 RNA with C25A, G27C, C28A, C29G, C30A, G31C
DNA 1: CAATCTGAATTCCGGTCTCCC
DNA 2: TGGTGGCTACGACGGGATT
B10: AUUAUGU (DNA:RNA)
RNA: GGGAGACCGGAAUUCAGAUUGUCCAUUAUGUUUAAAUCCCGUCGUAGCCACCA
DNA 1: CAATCTGAATTCCGGTCTCCC
DNA 2: TGGTGGCTACGACGGGATT
B11: AGCCCGG (DNA:RNA)
RNA: B1 RNA with C25A, C26G, G27C, C30G
DNA 1: CAATCTGAATTCCGGTCTCCC
DNA 2: TGGTGGCTACGACGGGATT
B12: GAUGUCU (DNA:RNA)
RNA: B10 RNA with A25G, U26A, A28G, G30C
DNA 1: CAATCTGAATTCCGGTCTCCC
DNA 2: TGGTGGCTACGACGGGATT
B13: CUGCAUA (DNA:RNA)
RNA: B1 RNA with C26U, C29A, C30U, G31A
DNA 1: CAATCTGAATTCCGGTCTCCC
DNA 2: TGGTGGCTACGACGGGATT
B14: GUAUCGA (DNA:RNA)
RNA: B10 RNA with A25G, U27A, A28U, U29C, U31A
DNA 1: CAATCTGAATTCCGGTCTCCC
DNA 2: TGGTGGCTACGACGGGATT
B15: GUAACGG (DNA:RNA)
RNA: B10 RNA with A25G, U27A, U29C, U31G
DNA 1: CAATCTGAATTCCGGTCTCCC
DNA 2: TGGTGGCTACGACGGGATT
B16: UCCAUUG (DNA:RNA)
RNA: B10 RNA with A25U, U26C, U27C, G30U, U31G
DNA 1: CAATCTGAATTCCGGTCTCCC
DNA 2: TGGTGGCTACGACGGGATT
B17: AACAAUC (DNA:RNA)
RNA: B10 RNA with U26A, U27C, U29A, G30U, U31C
DNA 1: CAATCTGAATTCCGGTCTCCC
DNA 2: TGGTGGCTACGACGGGATT
B18: CACGCCU (DNA:RNA)
RNA: B1 RNA with C26A, G27C, C28G, G31U
DNA 1: CAATCTGAATTCCGGTCTCCC
DNA 2: TGGTGGCTACGACGGGATT
B19: GUACCUC (DNA:RNA)
RNA: B1 RNA with C25G, C26U, G27A, C30U, G31C
DNA 1: CAATCTGAATTCCGGTCTCCC
DNA 2: TGGTGGCTACGACGGGATT
B20: AUUGACC (DNA:RNA)
RNA: B10 RNA with A28G, U29A, G30C, U31C
DNA 1: CAATCTGAATTCCGGTCTCCC
DNA 2: TGGTGGCTACGACGGGATT
B21: AUGCUGU (DNA:RNA)
RNA: B10 RNA with U27G, A28C
DNA 1: CAATCTGAATTCCGGTCTCCC
DNA 2: TGGTGGCTACGACGGGATT
B22: CCCCUUG (DNA:RNA)
RNA: B1 RNA with G27C, C29U, C30U
DNA 1: CAATCTGAATTCCGGTCTCCC
DNA 2: TGGTGGCTACGACGGGATT
B23: ACGAAUC (DNA:RNA)
RNA: B10 RNA with U26C, U27G, U29A, G30U, U31C
DNA 1: CAATCTGAATTCCGGTCTCCC
DNA 2: TGGTGGCTACGACGGGATT
B24: AUCCUUA (DNA:RNA)
RNA: B10 RNA with U27C, A28C, G30U, U31A
DNA 1: CAATCTGAATTCCGGTCTCCC
DNA 2: TGGTGGCTACGACGGGATT
B25: ACCUAUG (DNA:RNA)
RNA: B1 RNA with C25A, G27C, C28U, C29A, C30U
DNA 1: CAATCTGAATTCCGGTCTCCC
DNA 2: TGGTGGCTACGACGGGATT
B26: UAUACGG (DNA:RNA)
RNA: B10 RNA with A25U, U26A, U29C, U31G
DNA 1: CAATCTGAATTCCGGTCTCCC
DNA 2: TGGTGGCTACGACGGGATT
B27: GGACGCC (DNA:RNA)
RNA: B1 RNA with C25G, C26G, G27A, C29G, G31C
DNA 1: CAATCTGAATTCCGGTCTCCC
DNA 2: TGGTGGCTACGACGGGATT
B28: UCAAUCG (DNA:RNA)
RNA: B1 RNA with C25U, G27A, C28A, C29U
DNA 1: CAATCTGAATTCCGGTCTCCC
DNA 2: TGGTGGCTACGACGGGATT
B29: UUGGCUC (DNA:RNA)
RNA: B1 RNA with C25U, C26U, C28G, C30U, G31C
DNA 1: CAATCTGAATTCCGGTCTCCC
DNA 2: TGGTGGCTACGACGGGATT
B30: CCCAGUA (DNA:RNA)
RNA: B1 RNA with G27C, C28A, C29G, C30U, G31A
DNA 1: CAATCTGAATTCCGGTCTCCC
DNA 2: TGGTGGCTACGACGGGATT
B31: CGCCGAU (DNA:RNA)
RNA: B1 RNA with C26G, G27C, C29G, C30A, G31U
DNA 1: CAATCTGAATTCCGGTCTCCC
DNA 2: TGGTGGCTACGACGGGATT

The experiment deals with T1, RBFOX1 RRM RbFoxmut (Fox-RRM*). Description: EMSA; HiTS-Eq, 1 nM pool, 10 min; buffer printed only for the single-RNA assays: 10 mM Tris pH 7.5, 150 mM NaCl, 3.4 mM EDTA, 0.001% NP-40, 30 C. Particulars: tags: His6 N-terminal (pET28a); label: 5' 32P. The essentials:
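A pool of RNA with 7 randomized nucleotides, 5′-radiolabelled and with DNA-annealed flanks, was equilibrated at 1 nM for 10 min in 50 µL with purified RbFox RRM, wild type or mutant, across increasing protein concentrations. Free RNA was separated by 8% native PAGE, excised, reverse-transcribed, barcoded by PCR and sequenced. Relative association constants were obtained from read-count changes of each RNA species versus the control reaction and normalised to the cognate motif.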
For orientation: In EMSA bound probe runs differently from free probe, usually more slowly.
Regarding B1, the binding signal was 0.096 KA relative to UGCAUGU. As to B2, the binding signal is 0.12 KA relative to UGCAUGU.

For the molecule B3, the binding signal is 0.112 KA relative to UGCAUGU. The same measure for B4: 0.138 KA relative to UGCAUGU. Take B5: the binding signal is 0.0959 KA relative to UGCAUGU. As to B6, the binding signal was 0.0629 KA relative to UGCAUGU.

As to B7, the binding signal is 0.0893 KA relative to UGCAUGU.

On to B8, for which the binding signal is 0.12 KA relative to UGCAUGU. In the case of B9, the binding signal was 0.0637 KA relative to UGCAUGU. For B10, the binding signal is 0.167 KA relative to UGCAUGU. With B11, the binding signal was 0.0835 KA relative to UGCAUGU.

Regarding B12, the binding signal is 0.0917 KA relative to UGCAUGU. As to B13, the binding signal is 0.144 KA relative to UGCAUGU.

For B14, the binding signal was 0.209 KA relative to UGCAUGU. In the case of B15, the binding signal is 0.0695 KA relative to UGCAUGU.

With B16, the binding signal was 0.132 KA relative to UGCAUGU. To B17 belongs 0.0295 KA relative to UGCAUGU. For B18, the binding signal is 0.112 KA relative to UGCAUGU. The same measure for B19: 0.0709 KA relative to UGCAUGU; for B20: 0.0927 KA relative to UGCAUGU. The same measure for B21: 0.144 KA relative to UGCAUGU; for B22: 0.0766 KA relative to UGCAUGU. Consider B23, for which the binding signal is 0.283 KA relative to UGCAUGU. As for B24, the binding signal was 0.136 KA relative to UGCAUGU. The same measure for B25: 0.118 KA relative to UGCAUGU; for B26: 0.0925 KA relative to UGCAUGU.

With B27, the binding signal was 0.0969 KA relative to UGCAUGU. Turning to B28, the binding signal was 0.0683 KA relative to UGCAUGU. To B29 belongs 0.134 KA relative to UGCAUGU. In the case of B30, the binding signal is 0.116 KA relative to UGCAUGU. To B31 belongs 0.0698 KA relative to UGCAUGU.
